# Out of some 420,000 compounds screened, about 64,000 (15%) were called active. Inconclusive results, whose numbers are uncertain, are shown with a selection of clear calls. Calls come from the whole dose curve; as a rule, active = well fitted inhibition curve with a large enough effect; inconclusive = small, poorly fitted or top-dose-only effect; inactive = flat fitted curve, though single readings scatter. Potencies of inconclusive entries are left out as doubtful fits.
# Assay: qHTS for Inhibitors of human tyrosyl-DNA phosphodiesterase 1 (TDP1): qHTS in cells in absence of CPT; note: nearly all actives have a fitted effect of over 55% in size
# Settings: DT40 Tdp1-/- hTDP1 cells, no CPT, ATP luminescence, 48 h; activity change, negative = growth inhibition: at 46.2 µM (top of the series) unless noted
# Procedure, shortened: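 Chicken DT40 Tdp1-/- cells stably complemented with human TDP1 were seeded at 400 cells/well with DMSO in place of 20 nM camptothecin. After compound pinning, cells grew at least 48 hr at 37 °C; viability read by CellTiter-Glo luminescence.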
# % is set by controls: 0 for no effect and ±100 for the full control effect; potency is the fitted concentration of half-maximal effect; tags give direction and shape of the fitted curve.
SMILES,Potency,"activity change, negative = growth inhibition"
COCCCNC(=S)NNC(=O)c1csc(C)n1,"inconclusive [inhibitor, single point]",–
CCOC(=O)C(=CNc1ccc(N2CCOCC2)cc1)C(=O)OCC,active: 16.4 µM,–
C/C=C/C=C\C(=O)Nc1cccc(C2=NOC3(C2)C[C@H](C(N)=O)N(C(=O)/C=C/C)C3)c1 (stereo partly drawn),"inconclusive [inhibitor, single point]",–
COc1ccccc1CC(=O)Nc1ccc(O)cc1C(=O)O,–,inactive: -1.78%
COc1cc(C(=O)N2CCC(C(=O)Nc3cccc(C(C)=O)c3)CC2)cc(OC)c1OC,"inconclusive [inhibitor, full curve, poor fit]",–
Cc1cccc(NC(=S)N2CCC(C(=O)c3ccc(F)cc3)CC2)c1C,–,inactive: -36.1%
CCN(CC)C(=O)Cn1c(=O)n(-c2ccc(Cl)cc2)c(=O)c2c3c(sc21)CCCCC3,"inconclusive [inhibitor, single point]",–
COc1ccc(CNc2nc(NCc3ccc(OC)cc3)c3ncn(C4CCCC4)c3n2)cc1,active: 2.31 µM,–
Cc1nn(C)c2c1c(-c1ccccc1)cc(=O)n2Cc1ccc(F)cc1Cl,"inconclusive [inhibitor, partial curve]",–
O=[N+]([O-])c1ccc(Sc2cccc[n+]2[O-])c2nonc12,active: 0.0206 µM,–
CCC(=O)Nc1cc(OC)c(NC(=O)c2ccccc2)cc1OC,–,inactive: -19.7%
CNC(=O)COC(=O)c1cc(-c2ccc(OC)cc2)nc2ccccc12,"inconclusive [inhibitor, partial curve]",–
Cc1ccc(NC(=O)c2ccc3c(c2)OCCO3)nc1,"inconclusive [inhibitor, single point]",–
COc1ccc(C(=O)N2CCN(Cc3ccccc3C(F)(F)F)CC2)cc1,"inconclusive [inhibitor, single point]",–
CCOC(=O)C1=C(COC(=O)/C=C/c2cccc(Cl)c2)NC(=O)NC1C (stereo not drawn),–,inactive: -3.15%
O=[N+]([O-])c1ccc(CSc2nc3ccccc3[nH]2)cc1,active: 29.1 µM,–
CCNC(=S)NNC(=O)c1cccn(Cc2ccc(Cl)cc2Cl)c1=O,"inconclusive [inhibitor, partial curve]",–
COc1ccc(CCNC(=O)c2ccc(SC)cc2OC)cc1,"inconclusive [inhibitor, single point]",–
CCOC(=O)C1CCCN(Cc2nc(Cc3cccc(F)c3)no2)C1 (stereo not drawn),"inconclusive [inhibitor, single point]",–
O=C(O)C(Cc1c[nH]c2ccccc12)NS(=O)(=O)c1cccc(Cl)c1Cl (stereo not drawn),–,inactive: -13.3%
CCOC(=O)c1c(C)nc2ccccn12,–,inactive: -10.4%
O=S(Cc1ccc(Br)cc1)Cc1nnc(SCc2ccc(Cl)cc2)n1-c1ccccc1 (stereo not drawn),active: 18.4 µM,–
CC(=O)Nc1ccc(NC(=S)NC(=O)c2ccc([N+](=O)[O-])c(C)c2)cc1,–,inactive: -9.77%
CCOc1ccc(NC(=O)/C(C#N)=C\c2ccc(N3CCCC3)c(C)c2)cc1,"inconclusive [inhibitor, partial curve, poor fit]",–

SMILES,Potency,"activity change, negative = growth inhibition"
Cc1ccc(S(=O)(=O)N2CCN(C(=O)c3ccccc3Cc3ccccc3)CC2)c(C)c1,"inconclusive [inhibitor, partial curve]",–
COC(=O)c1ccc(C(=O)Nc2ccc(F)cc2)cc1,active: 8.2 µM,–
O=C1NC(=O)/C(=C\c2ccc(OCc3ccccc3)cc2)S1,–,inactive: -1.48%
c1ccc(Cn2c(Sc3nnnn3-c3ccccc3)nnc2-c2ccccc2)cc1,"inconclusive [inhibitor, single point]",–
CC(C)=C1SC(N2CCN(c3cccc(C)c3)CC2)=NC1=O,active: 20.6 µM,–
Cc1ncc(CO)c(/C=N/NC(=S)Nc2ccc(Cl)c(Cl)c2)c1O,active: 13 µM,–
Clc1ccccc1C=NNc1ccccn1,–,inactive: 7.16%
CCOc1ccc(CCNC(=O)CCn2c(=O)c3cccn3c3ccc(F)cc32)cc1OCC,active: 13 µM,–
O=C1CC(c2ccccc2)Sc2ccccc2N1 (stereo not drawn),active: 10.3 µM,–
COCCN(C(=O)Cc1cccs1)C(C(=O)NCc1ccc(OC)cc1)c1ccc(OC)cc1 (stereo not drawn),"inconclusive [inhibitor, single point]",–
CN(C)S(=O)(=O)c1cccc(NC(=O)c2cccc(S(=O)(=O)N3CCCCCC3)c2)c1,"inconclusive [inhibitor, single point]",–
CCCCN(CCCC)c1nn[nH]n1,–,inactive: 0.451%
CC(C)(C)c1ccc(OCC(=O)Nc2ccncc2)cc1,"inconclusive [inhibitor, single point]",–
COc1ccc(S(=O)(=O)N(C)CC(=O)NC2CCCCC2)cc1Cl,–,inactive: -7.83%
O=C(CSc1nc2ccccc2c(=O)[nH]1)Nc1ccc(N2CCOCC2)c(Cl)c1,"inconclusive [inhibitor, partial curve]",–
O=C(COc1coc(CN2CCN(c3ccc(F)cc3)CC2)cc1=O)NC1CCCCC1,active: 7.31 µM,–
CC(=O)Nc1cc[n+](C(C)C(=O)c2ccc(Cl)cc2)cc1 (stereo not drawn),active: 16.4 µM,–
COc1ccccc1C(=O)n1nc(-c2ccc(Cl)cc2)nc1N,"inconclusive [inhibitor, partial curve]",–
COc1cc(C(=S)N2CCOCC2)cc(Br)c1OS(=O)(=O)c1ccccc1,"inconclusive [inhibitor, partial curve]",–
CC(=O)NCCNc1nc(-c2ccccc2C)nc2ccccc12,–,inactive: -23.7%
O=S(=O)(c1ccc2c(c1)OCCO2)N1CCN(c2nc3ccccc3s2)CC1,"inconclusive [inhibitor, single point]",–
O=C(CSc1nnc(-c2csc3c2CCCC3)o1)Nc1ccccc1,"inconclusive [inhibitor, single point]",–
O=C(OCCc1cc2ccccc2c(=O)o1)c1ccc2c(c1)OCO2,"inconclusive [inhibitor, single point]",–
Cc1ccc(S(=O)(=O)N2CCC(=O)c3ccccc32)cc1,"inconclusive [inhibitor, single point]",–

# From PubChem BioAssay AID686978 (National Center for Advancing Translational Sciences (NCATS), 2013)
